# A collection of fitness landscapes (doi:10.1126/science.1257360)
# The list shows a part of the results.
# B1: PhoQ; a variant is named by its letters at X, in order, P23837 (parent)
# chain: MKKLLRLFFPLSLRVRFLLATAAVVLVLSLAYGMVALIGYSVSFDKTTFRLLRGESNLFYTLAKWENNKLHVELPENIDKQSPTMTLIYDENGQLLWAQRDVPWLMKMIQPDWLKSNGFHEIEADVNDTSLLLSGDHSIQQQLQEVREDDDDAEMTHSVAVNVYPATSRMPKLTIVVVDTIPVELKSSYMVWSWFIYVLSANLLLVIPLLWVAAWWSLRPIEALAKEVRELEEHNRELLNPATTRELTSLVRNLNRLLKSERERYDKYRTTLTDLTHSLKTPLXXLQXXLRSLRSEKMSVSDAEPVMLEQISRISQQIGYYLHRASMRGGTLLSRELHPVAPLLDNLTSALNKVYQRKGVNISLDISPEISFVGEQNDFVEVMGNVLDNACKYCLEFVEISARQTDEHLYIVVEDDGPGIPLSKREVIFDRGQRVDTLRPGQGVGLAVAREITEQYEGKIVAGESMLGGARMEVIFGRQHSAPKDE
# Variants of: B1
# Assay: enrichment ratio after two sorts for PhoP signalling (ratio (wild type AVST 3.29)); higher = more functional
# Conditions: with PhoP (E. coli)
row,Variant,enrichment ratio
1,VINS,≤ 0.25
2,MVSF,3.84
3,LDFE,≤ 0.25
4,HKQC,≤ 0.25
5,QWPA,≤ 0.25
6,LFAQ,≤ 0.25
7,GNLP,≤ 0.25
8,NKYY,≤ 0.25
9,TFLH,≤ 0.25
10,GPFK,≤ 0.25
11,SHVK,≤ 0.25
12,DRLA,≤ 0.25
13,ETIF,≤ 0.25
14,ICQL,≤ 0.25
15,KIYF,≤ 0.25
16,HKQA,≤ 0.25
17,RFEG,≤ 0.25
18,NDFV,≤ 0.25
19,DTHM,≤ 0.25
20,EKYV,≤ 0.25
21,AELL,12.1
22,TFLE,≤ 0.25
23,GTDS,≤ 0.25
24,SRTV,≤ 0.25

row,Variant,enrichment ratio
1,PDYI,≤ 0.25
2,PSEC,≤ 0.25
3,TPHP,≤ 0.25
4,WSWI,≤ 0.25
5,GDMN,≤ 0.25
6,LELL,≤ 0.25
7,WVEP,≤ 0.25
8,ESRK,≤ 0.25
9,QDHV,≤ 0.25
10,LGRG,≤ 0.25
11,FSQM,≤ 0.25
12,DHST,≤ 0.25
13,YNDC,≤ 0.25
14,SYWF,≤ 0.25
15,FCGD,≤ 0.25
16,ESLA,≤ 0.25
17,WWVR,≤ 0.25
18,LQYR,≤ 0.25
19,ASGF,8.63
20,WQFC,≤ 0.25
21,PLLE,≤ 0.25
22,VQEF,≤ 0.25
23,EDFA,≤ 0.25
24,DIYH,≤ 0.25

row,Variant,enrichment ratio
1,WDYD,≤ 0.25
2,WCIN,≤ 0.25
3,AERR,≤ 0.25
4,ALGM,1.85
5,IVVE,≤ 0.25
6,VSLM,7.64
7,VGIF,≤ 0.25
8,NERL,≤ 0.25
9,HDWH,≤ 0.25
10,MRME,≤ 0.25
11,DGQC,≤ 0.25
12,HFCG,≤ 0.25
13,IGRN,≤ 0.25
14,KFDC,≤ 0.25
15,DKHL,≤ 0.25
16,LPEA,≤ 0.25
17,PPWE,≤ 0.25
18,MHIA,≤ 0.25
19,LSMW,1.03
20,PQFV,≤ 0.25
21,AAKF,≤ 0.25
22,ISCQ,≤ 0.25
23,VTTG,≤ 0.25
24,PHMA,≤ 0.25

row,Variant,enrichment ratio
1,PSEQ,≤ 0.25
2,DSHK,≤ 0.25
3,GRRL,≤ 0.25
4,DFQR,≤ 0.25
5,GMFA,≤ 0.25
6,LQSR,≤ 0.25
7,EIQV,≤ 0.25
8,NYQQ,≤ 0.25
9,DTEI,≤ 0.25
10,ATSY,11
11,RDSP,≤ 0.25
12,MRCW,≤ 0.25
13,LSQR,≤ 0.25
14,ELGL,≤ 0.25
15,WSER,≤ 0.25
16,DDET,≤ 0.25
17,VIRT,≤ 0.25
18,IQSS,≤ 0.25
19,KNGQ,≤ 0.25
20,WMLA,≤ 0.25
21,LSQP,≤ 0.25
22,TVQA,0.404
23,MRSN,≤ 0.25
24,YNTM,≤ 0.25

row,Variant,enrichment ratio
1,NKLD,≤ 0.25
2,WMMY,≤ 0.25
3,GSFD,≤ 0.25
4,WARD,≤ 0.25
5,TRWY,≤ 0.25
6,RYWR,≤ 0.25
7,WYSN,≤ 0.25
8,WPCY,≤ 0.25
9,ESHG,≤ 0.25
10,DCFV,≤ 0.25
11,NFYK,≤ 0.25
12,QPAF,≤ 0.25
13,EGLF,≤ 0.25
14,FMVA,≤ 0.25
15,WVTS,≤ 0.25
16,ELIK,≤ 0.25
17,KFMC,≤ 0.25
18,TIIK,≤ 0.25
19,FQWW,≤ 0.25
20,AFDP,≤ 0.25
21,DGSM,≤ 0.25
22,FWHW,≤ 0.25
23,DNGF,≤ 0.25
24,RWDR,≤ 0.25

row,Variant,enrichment ratio
1,GHHG,≤ 0.25
2,QYGS,≤ 0.25
3,MADG,≤ 0.25
4,WSWG,≤ 0.25
5,PHTM,≤ 0.25
6,GDYY,≤ 0.25
7,SQQM,15.9
8,YHQS,≤ 0.25
9,SWSE,≤ 0.25
10,AECC,16.3
11,QAAL,3.3
12,HMTH,≤ 0.25
13,SLAW,5.36
14,NGDK,≤ 0.25
15,ETHS,≤ 0.25
16,RAIH,≤ 0.25
17,SWWK,≤ 0.25
18,TMNR,≤ 0.25
19,GCIS,2.07
20,MLGY,≤ 0.25
21,SMFY,≤ 0.25
22,TMHQ,15.4
23,FTRD,≤ 0.25
24,DRYY,≤ 0.25

row,Variant,enrichment ratio
1,NAPA,≤ 0.25
2,AATR,≤ 0.25
3,VMQP,≤ 0.25
4,FNWV,≤ 0.25
5,GQQI,≤ 0.25
6,NISY,≤ 0.25
7,RKDN,≤ 0.25
8,HWNQ,≤ 0.25
9,PTTV,≤ 0.25
10,DSSQ,≤ 0.25
11,YTGI,≤ 0.25
12,SRKK,1.49
13,RTCW,≤ 0.25
14,PRCS,≤ 0.25
15,PMWK,≤ 0.25
16,IPRQ,≤ 0.25
17,SDRD,≤ 0.25
18,FTIN,≤ 0.25
19,PDYE,≤ 0.25
20,KQQR,≤ 0.25
21,DGSA,≤ 0.25
22,LTMV,≤ 0.25
23,IVRC,≤ 0.25
24,QVPS,≤ 0.25

row,Variant,enrichment ratio
1,HFLY,≤ 0.25
2,GGFM,≤ 0.25
3,LEQR,≤ 0.25
4,WCPT,≤ 0.25
5,TSQK,≤ 0.25
6,QRRG,≤ 0.25
7,AGPP,≤ 0.25
8,WYCM,≤ 0.25
9,LYEV,≤ 0.25
10,HQLK,≤ 0.25
11,HIIG,≤ 0.25
12,LTIK,≤ 0.25
13,DQGA,≤ 0.25
14,MQSV,≤ 0.25
15,NGWG,≤ 0.25
16,MSGS,5.05
17,SWLN,≤ 0.25
18,TTML,28.8
19,KQAM,≤ 0.25
20,PTWQ,≤ 0.25
21,NNVA,≤ 0.25
22,SEWV,0.784
23,IHIA,≤ 0.25
24,RGSR,≤ 0.25

row,Variant,enrichment ratio
1,RQEF,≤ 0.25
2,TYLR,≤ 0.25
3,KRTT,≤ 0.25
4,ECCW,≤ 0.25
5,IKKK,≤ 0.25
6,VKWW,≤ 0.25
7,VIFG,≤ 0.25
8,FVYK,≤ 0.25
9,DSWF,≤ 0.25
10,PVLR,≤ 0.25
11,HQKV,≤ 0.25
12,YARH,≤ 0.25
13,STLG,14.5
14,PLYR,≤ 0.25
15,LDEQ,≤ 0.25
16,TRVI,5.94
17,IFDV,≤ 0.25
18,HATR,≤ 0.25
19,PWGV,≤ 0.25
20,YKGE,≤ 0.25
21,YQPV,≤ 0.25
22,GCLW,4.75
23,TCLY,≤ 0.25
24,FYND,≤ 0.25

row,Variant,enrichment ratio
1,FMMN,≤ 0.25
2,QGVH,≤ 0.25
3,ACVA,3.46
4,APLV,≤ 0.25
5,GQLK,≤ 0.25
6,NENI,≤ 0.25
7,DMSN,≤ 0.25
8,PWEI,≤ 0.25
9,IWAA,≤ 0.25
10,QTDG,13.5
11,RRHM,≤ 0.25
12,LHPE,≤ 0.25
13,AWSR,≤ 0.25
14,FMCQ,≤ 0.25
15,IDKI,≤ 0.25
16,ILPT,≤ 0.25
17,LIFV,≤ 0.25
18,FKYP,≤ 0.25
19,MAGG,8.22
20,NVKW,≤ 0.25
21,RYAK,≤ 0.25
22,WSFT,≤ 0.25
23,VMVG,≤ 0.25
24,YVAG,≤ 0.25

row,Variant,enrichment ratio
1,QVNH,≤ 0.25
2,TIDH,1.21
3,WHGI,≤ 0.25
4,QIML,≤ 0.25
5,TRNW,≤ 0.25
6,WKWA,≤ 0.25
7,YDPE,≤ 0.25
8,SFIN,≤ 0.25
9,KSNT,≤ 0.25
10,RDFC,≤ 0.25
11,MMAS,15.4
12,GIIW,≤ 0.25
13,RIYG,≤ 0.25
14,NQNF,≤ 0.25
15,LVPY,≤ 0.25
16,ALTE,≤ 0.25
17,YPAY,≤ 0.25
18,LRFY,≤ 0.25
19,PFFH,≤ 0.25
20,ECRM,≤ 0.25
21,SVPS,≤ 0.25
22,WHMP,≤ 0.25
23,RCGK,≤ 0.25
24,VWIT,≤ 0.25

row,Variant,enrichment ratio
1,GCYN,≤ 0.25
2,GQSN,≤ 0.25
3,KQKC,≤ 0.25
4,DLAI,≤ 0.25
5,LNWR,≤ 0.25
6,WDYK,≤ 0.25
7,YIFP,≤ 0.25
8,HELL,1.38
9,RRMG,≤ 0.25
10,YESQ,≤ 0.25
11,QFWG,2.61
12,GIPR,≤ 0.25
13,ARTF,≤ 0.25
14,LIWV,≤ 0.25
15,MNFY,≤ 0.25
16,NHDE,≤ 0.25
17,PIGT,≤ 0.25
18,HFHD,≤ 0.25
19,KRNM,≤ 0.25
20,DEPD,≤ 0.25
21,HTQS,≤ 0.25
22,TLCF,≤ 0.25
23,YLSM,0.31
24,SWMA,≤ 0.25

row,Variant,enrichment ratio
1,NQFH,≤ 0.25
2,DHLD,≤ 0.25
3,SSAM,10.8
4,KRKC,≤ 0.25
5,YWDS,≤ 0.25
6,NEGM,≤ 0.25
7,YMSI,≤ 0.25
8,AYGS,≤ 0.25
9,CIWF,≤ 0.25
10,MMFP,≤ 0.25
11,NEMF,≤ 0.25
12,VLGC,≤ 0.25
13,SCGV,4.54
14,FHLY,≤ 0.25
15,YPDL,≤ 0.25
16,IRYI,≤ 0.25
17,MEYD,≤ 0.25
18,MIMS,≤ 0.25
